The supplement of paper PMC4166925
± gives the standard deviation of the averaged measurements. The full ranking holds about 33,000 sequences; the median of “E-score (dimensionless, -0.5 to 0.5)” is about -0.046, and the highest 2% start at about 0.36. The list shows a part of the results.

System: T1, SpTbr T-box DNA-binding domain (GST fusion)
T1 sequence: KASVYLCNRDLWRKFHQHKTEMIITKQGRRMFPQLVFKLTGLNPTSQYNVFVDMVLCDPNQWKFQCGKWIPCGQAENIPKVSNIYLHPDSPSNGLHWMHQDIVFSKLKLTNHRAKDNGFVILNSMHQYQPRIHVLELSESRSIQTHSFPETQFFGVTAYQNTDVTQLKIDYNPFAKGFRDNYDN
Experiment: PBM E-score of 8-mer (E-score (dimensionless, -0.5 to 0.5)); Tbr is Tbrain of the sea star Patiria miniata (Pm) or the sea urchin Strongylocentrotus purpuratus (Sp); higher = stronger binding preference; most listed sequences are background and not binding sites
Conditions: the construct has about 5 more residues each side
Summary of the method: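 GST-fused Tbr T-box DNA-binding domains (the whole T-box plus about five flanking residues) were expressed in BL21 E. coli at 20 °C and purified by glutathione affinity chromatography. Universal Agilent oligonucleotide arrays were made double-stranded by primer extension, incubated with 200 nM protein in PBS (pH 7.5), then scanned and quantified. Every ungapped 8-mer was scored from probe intensities. The Universal PBM Analysis Suite gave each word an enrichment E-score, averaged over duplicate arrays.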

Row | Sequence | PBM E-score of 8-mer
1 | GTCTGTTA | 0.129 ± 0.015
2 | AATCTACC | -0.117 ± 0.013
3 | AGGTACTG | 0.00815 ± 0.16
4 | GGGACCAC | -0.184 ± 0.034
5 | ATTAGACA | -0.107 ± 0.0034
6 | ACGGAGAT | -0.151 ± 0.0021
7 | AGCCGATG | 0.0636 ± 0.0027
8 | AAATTAAC | 0.187 ± 0.029
9 | TTTCGAAA | -0.0868 ± 0.088
10 | CCTCGTTC | 0.0141 ± 0.013
11 | TATTACGA | -0.195 ± 0.13
12 | ATATTGAT | -0.0515 ± 0.062
13 | AATCCCAA | -0.249 ± 0.012
14 | ATCAAACA | 0.0199 ± 0.048
15 | CACACCTA | 0.4806 ± 0.0011
16 | CGGGGCCA | -0.213 ± 0.092
17 | ACTGGCAT | 0.0223 ± 0.048
18 | CAATTATG | -0.0617 ± 0.022
19 | ACGCATAT | 0.118 ± 0.066
20 | TGTAGACA | 0.118 ± 0.045
21 | CATGATAA | -0.0381 ± 0.086
22 | CGGCTCAG | -0.234 ± 0.056

Row | Sequence | PBM E-score of 8-mer
23 | CTGTTCTA | -0.147 ± 0.09
24 | ACGCATAG | 0.11 ± 0.043
25 | CTCGGAAC | -0.249 ± 0.021
26 | ATCGTGTA | -0.115 ± 0.094
27 | ACGCATCT | 0.0732 ± 0.04
28 | GCATGTCC | -0.0875 ± 0.095
29 | CAGTCGCA | 0.125 ± 0.008
30 | ACCGAATC | -0.0887 ± 0.092
31 | CTGCCACC | 0.247 ± 0.002
32 | ACAAGCGC | 0.107 ± 0.044
33 | AAGTGGTA | 0.083 ± 0.018
34 | ATTTTTGA | -0.321 ± 0.043
35 | AGGGCTCG | -0.214 ± 0.036
36 | AAGAAATG | -0.121 ± 0.0069
37 | CCTCACCA | 0.197 ± 0.025
38 | ACCGAGGG | -0.00648 ± 0.08
39 | CCCGGGTC | 0.0628 ± 0.11
40 | AGCGCGGC | 0.107 ± 0.057
41 | CGGGTAAA | -0.0638 ± 0.0065
42 | CTACTCTA | -0.157 ± 0.073
43 | CGATTAAA | -0.0163 ± 0.022
44 | GATCTGAC | 0.0523 ± 0.0091

Row | Sequence | PBM E-score of 8-mer
45 | ATTTGGTA | -0.247 ± 0.089
46 | AGCGTTCC | -0.18 ± 0.023
47 | GATTAATC | -0.199 ± 0.051
48 | CTATTGAG | 0.0789 ± 0.0069
49 | CATCCTCG | -0.0211 ± 0.019
50 | ATATTATG | -0.033 ± 0.014
51 | GTCGCTAA | 0.264 ± 0.016
52 | ATATGCAA | -0.118 ± 0.0049
53 | CTGGTCCC | -0.198 ± 0.087
54 | CCAACGAG | -0.106 ± 0.031
55 | AACTATTA | -0.038 ± 0.054
56 | ACTTAATG | -0.1 ± 0.055
57 | AGGCCGTG | 0.0787 ± 0.042
58 | AAGTAATT | -0.161 ± 0.074
59 | ATTATTTC | 0.0521 ± 0.066
60 | CCTCCCAG | 0.0604 ± 0.011
61 | CACAACGC | 0.126 ± 0.03
62 | GAATGCGA | 0.0408 ± 0.00057
63 | AGTAGCTA | -0.0118 ± 0.026
64 | CTATCCAG | -0.244 ± 0.046
65 | AGCATACA | 0.1 ± 0.023
66 | GTTTCGGA | -0.175 ± 0.034

Row | Sequence | PBM E-score of 8-mer
67 | GGTAGCAC | 0.343 ± 0.022
68 | CGGTGGAG | -0.07 ± 0.051
69 | CTCAAGCC | -0.0843 ± 0.083
70 | GAGAGAGC | 0.034 ± 0.00057
71 | CGGCCGAA | -0.16 ± 0.027
72 | AGCCTTAT | -0.0413 ± 0.025
73 | GGGATCAA | -0.0837 ± 0.014
74 | GACGGACA | -0.0314 ± 0.026
75 | CGCCATGA | 0.0197 ± 0.041
76 | TACTGTAA | -0.0785 ± 0.0084
77 | ATTGTCTC | -0.0507 ± 0.043
78 | TGAAACCA | -0.0205 ± 0.016
79 | AGTAGGCG | 0.0676 ± 0.025
80 | CTATAGTA | -0.211 ± 0.015
81 | CAACTCGA | 0.144 ± 0.0075
82 | ACGACTGA | -0.0336 ± 0.017
83 | ATTTCAAA | -0.185 ± 0.056
84 | CACGCGCA | 0.196 ± 0.077
85 | AATAGCTG | 0.00317 ± 0.056
86 | GGTGGGAA | 0.359 ± 0.011
87 | CCTCCGCC | 0.077 ± 0.081
88 | ATCCTTGA | -0.224 ± 0.0075

Row | Sequence | PBM E-score of 8-mer
89 | CGAGATGC | -0.0323 ± 0.032
90 | GGGACCCA | -0.0579 ± 0.032
91 | ACCCTCAA | 0.0515 ± 0.079
92 | AATTTCCG | -0.265 ± 0.02
93 | ATATCAGG | -0.117 ± 0.026
94 | AGACGTGA | 0.145 ± 0.038
95 | CGTCATGC | -0.0622 ± 0.021
96 | ATCAATGG | -0.0599 ± 0.011
97 | CCGATAGG | 0.00486 ± 0.048
98 | AACTGAGC | -0.217 ± 0.015
99 | AGACATGG | -0.384 ± 0.04
100 | GTTTGTGA | 0.0633 ± 0.034
101 | AGTTGATC | 0.0379 ± 0.12
102 | ACTGCCAA | 0.0734 ± 0.024
103 | AGGAGAAT | -0.211 ± 0.021
104 | AGAATATC | -0.106 ± 0.057
105 | ACGAACGA | -0.0913 ± 0.06
106 | AAGGTCTC | -0.163 ± 0.025
107 | AACCCCTG | -0.108 ± 0.043
108 | TTCGCAAA | 0.182 ± 0.0032
109 | GCAACGAA | -0.107 ± 0.045
110 | ATCTAAAC | -0.121 ± 0.043
